# Experimental data: PubChem BioAssay AID686971 (National Center for Advancing Translational Sciences (NCATS), 2013)
# Screen size: about 360,000 compounds; about 7,500 (2.1%) were called active. Inconclusive results, whose numbers are uncertain, are shown with a selection of clear calls. The call rests on the fitted dose curve; in most records, active means well fitted cell-killing curve with a large enough effect; inconclusive means small, poorly fitted or top-dose-only effect, or effect the other way, or another doubt; inactive means no such curve, though single readings can be large or run the other way. No potency is given beside an inconclusive call; the fits are too rough.
# Assay: qHTS for induction of synthetic lethality in tumor cells producing 2HG: qHTS for the HT-1080-IDH1KD cell line;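 on activity, negative = toxicity: 0% = DMSO wells and -100% = cell-free medium wells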
# Details: HT-1080 IDH1 knockdown viability, ATP luminescence, 48 h; activity, negative = toxicity: at 46.1 µM (top of the series) unless noted
# Procedure, shortened: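 In this qHTS, HT-1080 cells depleted of IDH1 are exposed for 48 h at 37 °C to compound titrations. Toxicity is scored from CellTiter-Glo luminescence, with DMSO as full viability and medium alone as none.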
# Potency means the concentration at half of the fitted maximal effect; tags describe the fitted curve by direction and shape.
SMILES,"activity, negative = toxicity",Potency
CCOc1ccc(NC(=O)CN(C)C(=O)C(C)Oc2ccc(Cl)cc2)cc1OCC (configuration not stated),inactive: 3.16%,
COc1ccccc1CN(Cc1nc2ccccc2c(=O)[nH]1)C(=O)Nc1cccc(C)c1,,active: 3.55 µM
Cc1c(C(=O)Nc2ccncc2)oc2ccccc12,,"inconclusive [cytotoxic, single point]"
O=C(CCl)Nc1ccc(Oc2cnc3ccccc3n2)cc1,,active: 7.08 µM
C[C@H](O)[C@@H]1C(=O)N2CCc3c([nH]c4ccccc34)[C@@H]2C[C@@H]1N(C)C(=O)Nc1cccc2ccccc12,,"inconclusive [cytotoxic, single point]"
O=C(CN1C(=O)NC2(CCCCC2)C1=O)NCC(=O)Nc1ccc(F)c(F)c1,inactive: -9.84%,
Cc1ccc(OCC(=O)Nc2sc3c(c2C#N)CC(C)(C)NC3(C)C)cc1,,"inconclusive [cytotoxic, single point]"
Cc1cccc(CN(C)C[C@H]2OCc3cnnn3CCCC(=O)N([C@@H](C)CO)C[C@@H]2C)c1,inactive: 0.315%,
Cc1noc(-c2ccc(C(F)(F)F)cc2)c1NC(=O)Nc1ccc(Cl)cc1,,"inconclusive [cytotoxic, single point]"
CC(C)CN(CC(C)C)S(=O)(=O)c1cc([N+](=O)[O-])ccc1N1CCCCCC1,,"inconclusive [cytotoxic, single point]"
CCOC(=O)c1c(C(C)(C)C)oc2ccc(O)cc12,,"inconclusive [cytotoxic, single point]"
COc1ccc(CNC(=O)Cn2cnc3c(NCc4ccccc4)ncnc32)cc1,,active: 16.4 µM
CCOC(=O)c1c(C)[nH]c(C)c1C(=O)COC(=O)Cc1ccc(OC)c(OC)c1,inactive: 1.1%,
CCOc1ccc(CCNC(=O)C2CCCN(S(=O)(=O)c3c(C)n[nH]c3C)C2)cc1OCC (configuration not stated),inactive: 2.55%,
Cc1cc(=O)oc2cc(O)cc(O)c12,,active: 1.64 µM
COc1ccc(-c2nc(SCC(=O)Nc3nccs3)c(-c3ccc(Cl)cc3)[nH]2)cc1,,"inconclusive [cytotoxic, single point]"
CCN(CC)C(=O)[C@H]1C[C@H](CC(=O)NCc2ccc(OC)c(OC)c2)C(=O)N2CCc3c([nH]c4ccc(Cl)cc34)[C@]12C,,"inconclusive [cytotoxic, single point]"
CCOc1ccc(-c2nc(CCl)cs2)cc1,inactive: 10.4%,
CCOC(=O)C1=C(c2ccccc2)NC(=O)NC1c1ccc(O)c(Cl)c1 (configuration not stated),,active: 13 µM
CCCCn1c2nc3ccccc3nc2c2c(=O)n(CCC)cnc21,inactive: 9.1%,
O=C(NCc1ccncc1)/C(=C/c1cccc([N+](=O)[O-])c1)NC(=O)c1ccccc1,inactive: 11%,
COc1ccc(C2(O)CC3CCC(C2)N3c2cc(C)nc(-c3ccccc3)n2)cc1 (configuration not stated),,"inconclusive [cytotoxic, single point]"
N#Cc1nc(Cc2cccc3ccccc23)oc1NCc1ccco1,,"inconclusive [cytotoxic, partial curve]"
O=C(CSc1n[nH]c(-c2ccccn2)n1)Nc1cccc(Cl)c1,,"inconclusive [cytotoxic, partial curve]"

SMILES,"activity, negative = toxicity",Potency
COc1ccc(CN(C(=O)Cc2c[nH]c3ccccc23)C(C(=O)NC2CCCCC2)c2ccc(C)o2)cc1 (configuration not stated),,"inconclusive [cytotoxic, single point]"
COc1ccc(Nc2ccc([N+](=O)[O-])c3nonc23)c(OC)c1,,"inconclusive [cytotoxic, single point]"
COc1cc(OC)cc(C(=O)N/N=C\c2ccoc2)c1,,active: 5.8 µM
CC1C(=O)N(Cc2cn(CCC3OCCO3)nn2)CCS(=O)(=O)N1Cc1ccc(-c2ccc(Cl)c(Cl)c2)cc1 (configuration not stated),,"inconclusive [cytotoxic, single point]"
COc1ccc(CN2CCC(C)(Oc3ccc4c(c3)OCO4)C2)c2ccccc12 (configuration not stated),,"inconclusive [cytotoxic, single point]"
Cn1c(CC(=O)NCCO)c(Sc2ccccc2)c2ccccc21,inactive: -16.5%,
Cn1nc(CC(=O)Nc2ccc3c(c2)CCC3)c2ccccc2c1=O,,active: 2.91 µM
Cn1c(-n2c(-c3ccco3)nc3ccccc3c2=O)nc2ccccc21,,"inconclusive [cytotoxic, single point]"
O=C1c2ccccc2C(=O)c2c(/C=C/N3CCCCC3)ccnc21,,active: 23.1 µM
CC(=O)Nc1ccc(NC(=O)C(C)OC(=O)CCSc2ccccc2Cl)cc1 (configuration not stated),inactive: -3.37%,
CC(=O)Nc1nonc1-c1nc2ccccc2n1CCC(C)C,,"inconclusive [cytotoxic, single point]"
COc1ccc(CCNCC(O)COc2ccc(OC)cc2C(C)(C)C)cc1 (configuration not stated),,active: 18.4 µM
O=C(Nc1ccc(NC(=O)c2cccs2)cc1)c1ccc2c(c1)OCO2,,active: 11.6 µM
C[C@H]1CN([C@@H](C)CO)C(=O)c2cc(NC(=O)c3ccncc3)ccc2O[C@H]1CN(C)Cc1ccc(C(=O)O)cc1,inactive: 7.63%,
FC(F)(F)c1cc(CCN2CCNC[C@@H]2CC2CCCCC2)cc(C(F)(F)F)c1,,"inconclusive [cytotoxic, single point]"
COc1ccccc1NC(=O)CSc1nc(O)c(Cc2ccccc2)c(=O)[nH]1,inactive: 5.51% [at 9.24 µM],
O=c1cc(-c2ccccc2)[nH]c2nc3ccccc3n12,,"inconclusive [cytotoxic, partial curve]"
COc1cc(CNC2CCCCCCC2)cc(Cl)c1OC,,"inconclusive [cytotoxic, single point]"
COc1ccc(CNC(=O)CN(C)Cc2ccc(C(C)(C)C)cc2)cc1,,"inconclusive [cytotoxic, single point]"
COc1ccc(NC(=O)c2ccccc2)cc1NS(=O)(=O)c1ccc(F)cc1,inactive: -0.908%,
Cc1ccc(C(O)c2ncc(-c3ccccc3F)[nH]2)cc1F (configuration not stated),inactive: -8.27%,
CCOC(=O)[C@]12CCC=C1N(Cc1ccco1)C(=O)[C@H](CC(=O)NCc1cccc(C(F)(F)F)c1)C2,,"inconclusive [cytotoxic, single point]"
CC(C)c1nnc(NC(=O)c2nc(S(=O)(=O)Cc3ccccc3F)ncc2Cl)s1,,"inconclusive [cytotoxic, single point]"
CCOC(=O)C1CCCN(C(=O)c2ccc3c(=O)n(Cc4ccccc4OC)c(=S)[nH]c3c2)C1 (configuration not stated),,"inconclusive [cytotoxic, single point]"

SMILES,"activity, negative = toxicity",Potency
O=C(Cn1cnc2ccccc21)Nc1ccc(SC(F)F)cc1,,"inconclusive [cytotoxic, partial curve, poor fit]"
COc1ccccc1Nc1c2c(nc3ccccc13)CCC2,,"inconclusive [cytotoxic, partial curve]"
CC1=NN(c2nc3ccccc3[nH]2)C(=O)C1Cc1ccccc1 (configuration not stated),,"inconclusive [cytotoxic, partial curve]"
COc1ccc(C)cc1NC(=O)c1nn(-c2ccccc2)cc1OC,,active: 14.6 µM
O=[N+]([O-])c1ccc(C=Nc2cccc3ccccc23)s1,,active: 23.1 µM
Cc1ccc(-c2nn(Cc3ccccc3)cc2C(=O)NCC2CCCO2)cc1 (configuration not stated),inactive: 4.69%,
COc1ccc(C2C=C(c3ccc(C)c(C)c3)Nc3ncnn32)c(OC)c1OC (configuration not stated),,"inconclusive [cytotoxic, single point]"
CCc1nn(CC(=O)NCCCN2CCOCC2)c(=O)c2cc3sccc3n12,inactive: 3.58%,
Oc1ccccc1N=Cc1ccc[nH]1,,"inconclusive [cytotoxic, partial curve]"
O=C(NCCc1ccccc1)c1ccc(NC(=O)c2cccnc2)cc1,,"inconclusive [cytotoxic, single point]"
O=C(c1ccc(-c2cc3ccccc3oc2=O)cc1)N1CCN(c2ccc(Cl)cc2[N+](=O)[O-])CC1,inactive: -0.599%,
Cc1cc(C)cc(N(CC(=O)N2CCC(C)CC2)S(=O)(=O)c2ccccc2)c1,,"inconclusive [cytotoxic, single point]"
Nc1c(C(O)(C(F)(F)F)C(F)(F)F)cc(C(O)(C(F)(F)F)C(F)(F)F)c2ccccc12,,active: 23.1 µM
CC(C)[C@H](NC(=O)OC(C)(C)C)c1nnc(S(=O)(=O)Cc2c(F)cccc2Cl)o1,,active: 3.98 µM
CC(=O)OCCNc1cc(Sc2nc3ccccc3[nH]2)c2nonc2c1[N+](=O)[O-],,active: 18.4 µM
CCCCCCCCNc1ncnc2[nH]ncc12,inconclusive: -12.9% [cytotoxic],
COc1ccc(S(=O)(=O)/N=C2\C=C(Nc3ccc(O)cc3)C(=O)c3ccccc32)cc1,,active: 2.06 µM
Cc1cc2nc(-c3ccc(SCc4ccccn4)nc3)[nH]c2cc1C,,"inconclusive [cytotoxic, partial curve]"
Cc1cc(OCCn2cc(/C(N)=N/O)c3ccccc32)ccc1Cl,,"inconclusive [cytotoxic, single point]"
O=C(O)CCCCNS(=O)(=O)/C=C/c1ccccc1,inconclusive: 11.9%,
O=c1c2cc(NC(=S)NCCCN3CCC(Cc4ccccc4)CC3)ccc2nc2n1CCCCC2,,active: 16.4 µM
O=C(CN1C(=O)NC2(CCCCCCC2)C1=O)Nc1ccc(Br)cc1,,"inconclusive [cytotoxic, partial curve]"
Cc1ccc(C(=O)CC(c2cccs2)S(=O)(=O)c2ccc(C)cc2)cc1 (configuration not stated),inconclusive: 31.4%,
O=C(Nc1nc2n(n1)C(c1ccc(Cl)cc1)CC(c1ccc(Cl)cc1)N2)c1ccco1 (configuration not stated),,active: 23.1 µM
